Screen size: about 48,000 compounds; about 450 (0.94%) were called active. Inconclusive results (about 19%) are left out. The call rests on the fitted dose curve; in most records, active means well fitted inhibition curve with a large enough effect; inconclusive means small, poorly fitted or top-dose-only effect; inactive means no such curve, though single readings can be large or run the other way. This is one part of the list.
Assay: Primary qHTS for Identification of Small Molecule Inhibitors of Huntingtin Promoter Activity; further: nearly all actives have a fitted effect of over 50% in size
Conditions: HEK293 HTT promoter firefly luciferase reporter (activity 0% = vehicle and -100% = no light), 24 h; series mostly up to 57.5 µM; activity change, negative = inhibition: at the top concentration
Method in brief: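 HEK293 luciferase promoter-reporter cells (2,500/well) plated 24 h, then compounds added at up to 57.5 uM final for 24 h at 37 °C. Firefly luminescence by Dual-Glo, normalized to vehicle (0%) and zero RLU (-100%).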
Potency means the concentration at half of the fitted maximal effect.

SMILES	activity change, negative = inhibition	Potency
COc1ccc(C)cc1NC(=O)CN1C(=O)COc2ccc(S(=O)(=O)N3CCOCC3)cc21	inactive: 6.12%	–
O=C(COCc1cc(-c2cccs2)on1)Nc1cc(Cl)ccc1O	inactive: -22.2%	–
Cc1nc(-c2ccc(OCC(C)C)c(C#N)c2)sc1C(=O)O	–	active: 5.01 µM
CCOc1ccccc1NC(=O)Cn1c(=O)oc2cc(S(=O)(=O)NCc3ccccc3)ccc21	inactive: -29.1%	–
COC(=O)C1=C(C)NC(=O)C1(NC(=O)c1ccc(Cl)cc1)C(F)(F)F (stereo not drawn)	inactive: -9.03%	–
CCN1CCC(N(Cc2cccc(OC)c2)C(=O)Nc2cccc(C)c2C)CC1	inactive: -12.3%	–
CC1=Nc2cc(C(=O)NCc3ccc(C)cc3)ccc2Sc2ccc(Cl)cc21	inactive: -15.5%	–
O=C(CSc1nc2c([nH]c3ccccc32)c(=O)n1-c1ccc(Cl)cc1)NC1CCCCC1	inactive: -31.7%	–
CCc1ccc(NC(=O)N2CCN(Cc3nc4ccc(C)cc4o3)CC2)cc1	inactive: -38.3%	–
CCN(CC)C(=O)CN1C(=O)COc2ccc(S(=O)(=O)N3CCOCC3)cc21	inactive: -15%	–
CC(=O)[C@H]1CC[C@H]2[C@@H]3CC=C4C[C@@H](O)CC[C@]4(C)[C@H]3CC[C@]12C	inactive	–
COc1ccc(CC2c3cc(OC)c(OC)cc3CC[N+]2(C)CCC(=O)OCCCCCOC(=O)CC[N+]2(C)CCc3cc(OC)c(OC)cc3C2Cc2ccc(OC)c(OC)c2)cc1OC (stereo not drawn)	inactive: 2.14% [at 11.5 µM]	–
COc1ccc(NC(=O)Cn2nnc(C(=O)NCc3ccco3)c2N)c(OC)c1	inactive: -14.5%	–
Cc1cc(Nc2cccc(Br)c2)n2c(nc3ccccc32)c1C#N	inactive: -15%	–
Cc1ccc(N2CCN(C(=O)c3cn(C)c4ccc(S(=O)(=O)N5CCCC5)cc4c3=O)CC2C)cc1 (stereo not drawn)	inactive: -5.29%	–
CCOc1ccc(NC(=O)CN2C(=O)c3ccccc3Sc3ccc(C(=O)OC)cc32)cc1	inactive: -23.1%	–
Cc1cc(C)cc(-n2c(SCC(=O)NCc3ccc(F)cc3)nc3c([nH]c4ccccc43)c2=O)c1	inactive: -10.8%	–
COc1cc(NC(=O)CSc2nc(-c3ccccc3)no2)cc(OC)c1	inactive: -18%	–
COC(=O)c1sc(-c2ccccc2)cc1NC(=O)c1cccc(Cl)c1	inactive: 8.71%	–
O=C(Nc1nc(-c2ccccc2)ns1)c1ccc(Cl)cc1	inactive: -21.8%	–
CCOC(=O)N1CCc2c(sc(NCc3cccs3)c2C(=O)Nc2cc(Cl)ccc2OC)C1	inactive: -4.57%	–
CCN(CC)c1ccc(NC(=O)C2CCN(S(=O)(=O)c3ccc4c(c3)oc(=O)n4C)CC2)c(C)c1	inactive: -18.7%	–
CC(C(=O)O)c1ccc2c(c1)CC(=O)c1ccccc1S2 (stereo not drawn)	inactive	–
Cc1cccc(NC(=O)C(NS(=O)(=O)c2cccc3nsnc23)c2ccccc2)c1C (stereo not drawn)	inactive: -15.3%	–

SMILES	activity change, negative = inhibition	Potency
COc1ccc(CN(C(=O)c2cc(=O)c3ccccc3o2)C2CCS(=O)(=O)C2)cc1OC (stereo not drawn)	inactive: -17.9%	–
COc1ccc(N2CCN(S(=O)(=O)c3cc(Br)cc4c3N(C(=O)C3CC3)CC4)CC2)cc1	inactive: -10.1%	–
CC(C)(C)OC(=O)N1CCC(c2c(C(=O)N3CCN(c4ccccn4)CC3)cnn2-c2cccc(F)c2)CC1	inactive: 1.59%	–
Cc1ccc(NC(=O)Cn2c(=O)n(Cc3ccco3)c(=O)c3sc4ccccc4c32)c(C)c1	inactive: -12.3%	–
Cc1ccc(C(=O)NCC(c2ccco2)S(=O)(=O)c2ccccc2)cc1C (stereo not drawn)	inactive: -14.9%	–
CCOC(=O)c1c(C)c(-c2ccccc2)n(CC(=O)NCc2ccccc2)c1C	inactive: -3.16%	–
O=C(CSc1nccn1Cc1ccccc1)Nc1nc2ccccc2s1	inactive: 26.2%	–
COc1ccc(OC)c(NC(=O)COCc2cc(-c3ccco3)on2)c1	inactive: -6.42%	–
Cc1cc(C)c(Cn2c(=O)n(Cc3ccccc3)c(=O)c3c(C)c(C)sc32)c(C)c1	inactive: 1.09%	–
O=C(Nc1cccc(C(F)(F)F)c1)c1cc2nc(-c3ccco3)cc(C(F)(F)Cl)n2n1	inactive: -1.02%	–
Cc1ccc(S(=O)(=O)c2nnn(CC(=O)Nc3ccccc3C)c2N)cc1	inactive: -8.98%	–
COc1ccc(-n2nc(C(=O)N3CCCCC3)c3c4ccccc4n(C)c3c2=O)cc1Cl	inactive: -4.9%	–
Cc1ccc(Cl)cc1NC(=O)CCn1cnc2ccccc2c1=O	inactive: -19.5%	–
CCOC(=O)c1ccc(NC(=O)C2=C(C)C(=O)OC23CCN(C(C)=O)CC3)cc1	inactive: -1.63%	–
COc1cc(Nc2nc3ccc(Cl)cc3nc2-n2nc(C)cc2C)cc(OC)c1	inactive: 0.182%	–
O=C(CN1C(=O)COc2ccc(S(=O)(=O)NC3CCCC3)cc21)NCc1ccccc1Cl	inactive: -2.81%	–
Cn1ncc2c(Nc3cccc(C#N)c3)ncnc21	inactive: 31%	–
Cc1cc(C)cc(NC(=O)C(=O)NCC(c2cccnc2)N2CCOCC2)c1 (stereo not drawn)	inactive: -30.2%	–
Cc1nc(Nc2ncc(C(=O)Nc3c(C)cccc3Cl)s2)cc(N2CCN(CCO)CC2)n1	inactive: -30.7%	–
CC(=O)OCC(=O)[C@@]1(O)CC[C@H]2[C@@H]3CCC4=CC(=O)CC[C@]4(C)[C@@H]3C(=O)C[C@@]21C	inactive: -4.83%	–
Cc1ccc(NC(=O)Cn2c(=O)n(CCC(C)C)c(=O)c3cccnc32)cc1C	inactive: -9.03%	–
COc1ccc(Cl)cc1NC(=O)Cn1c(=O)n(Cc2ccc(F)cc2)c(=O)c2cccnc21	inactive: -24.8%	–
CCN(CCO)CCCC(C)Nc1ccnc2cc(Cl)ccc12 (stereo not drawn)	inactive	–
CC1CN(C(=O)N2CCC(C(=O)NCc3ccccc3F)CC2)c2cc(Cl)ccc2O1 (stereo not drawn)	inactive: -28.6%	–

SMILES	activity change, negative = inhibition	Potency
CCOc1ccc(NC(=O)C(C)n2c(=O)cc(-c3ccccc3)c3c(C)nn(C)c32)cc1 (stereo not drawn)	inactive: 15.5%	–
COc1ccc(CCNC(=O)CN(c2ccccc2)S(=O)(=O)N(C)C)cc1	inactive: 0.739%	–
COc1ccccc1-c1nn(CCC(=O)Nc2ccccc2)c2nc(C)cc(C)c12	inactive: -15.4%	–
Cc1ccc2nc(-c3ccc(C)s3)c(Nc3ccc4c(c3)OCCO4)n2c1	inactive: 28.2%	–
O=C(Nc1ccc(F)c(F)c1)C(c1ccccc1)N1Cc2ccccc2C1=O (stereo not drawn)	inactive: -11.7%	–
CCN(CC)CCNC(=O)c1cc2c(-c3cccc(OC)c3)nn(C)c2s1	inactive: -19.8%	–
CCOc1ccccc1NC(=O)Cn1c(=O)n(CCCC(=O)NCc2ccc(C)cc2)c(=O)c2ccccc21	inactive: -3.43%	–
Cc1ccc(C(=O)N2CCN(CCc3ccncc3)CC2)cc1	inactive: -15.7%	–
Cc1nn(C(C)C(=O)NCc2ccco2)c(=O)c2nn(-c3ccccc3)c(C)c12 (stereo not drawn)	inactive: -16.1%	–
Cc1cccc2sc(N(Cc3cccnc3)C(=O)c3ccco3)nc12	inactive: -26.2%	–
COc1ccccc1OCC(=O)NCCS(=O)(=O)N1CCN(c2ccccc2OC)CC1	inactive: -14.2%	–
CCOC(=O)c1c(CSc2ccccc2)n(C)c2cc(Br)c(O)c(CN(C)C)c12	inactive: -14.7%	–
COc1ccc(NC(=O)C(NS(=O)(=O)c2cccc3nsnc23)C(C)C)cc1OC (stereo not drawn)	inactive: -9.37% [at 11.5 µM]	–
COc1ccc(-c2nc(S(=O)(=O)c3ccccc3)c(N3CCC(C)CC3)o2)cc1	inactive: -2.97%	–
Oc1ccc(NCc2ccccc2OCc2ccccc2)cc1	inactive: -1.87%	–
COc1cccc(Nc2nc3c(S(=O)(=O)c4cc(C)ccc4C)nnn3c3ccsc23)c1	inactive: -11.2%	–
CC(=O)Nc1c(C)nn(-c2ccccc2)c1N1CCC(C(=O)Nc2ccccc2C(F)(F)F)CC1	inactive: 17.6%	–
O=C(CN1c2ccc(Br)cc2-c2ccccc2S1(=O)=O)N1CCCCC1	inactive: 78.2%	–
Cc1ccc(NC(=O)N2CCN(Cc3nc4ccc(C)cc4o3)CC2)cc1	inactive: -36.6%	–
CC(C)c1ccc2c(c1)c(SC(C)(C)C)c(CC(C)(C)C(=O)O)n2Cc1ccc(Cl)cc1	inactive: -33%	–
Cc1cc(=O)c2cc(C(=O)Nc3ccc(F)cc3)ccc2[nH]1	inactive: 12.5%	–
Cc1cc(C)c(NC(=O)CSC2=Nc3ccccc3C3=NC(CC(=O)NCc4cccs4)C(=O)N23)c(C)c1 (stereo not drawn)	inactive: -11.9%	–
CCN1CCc2nc3sc(C(=O)Nc4ccccc4OC(F)(F)F)c(N)c3cc2C1	inactive: -7.47%	–
COc1ccc(C)cc1-n1nnc(S(=O)(=O)c2ccc(C)cc2)c1C	inactive: -21.2%	–

SMILES	activity change, negative = inhibition	Potency
COc1ccc(CNc2oc(/C=C/c3cc(OC)c(OC)c(OC)c3)nc2C#N)cc1	inactive: -15.5%	–
O=C(Cn1c(-c2cccs2)cc2cc(F)ccc21)N1CCN(c2ccccc2)CC1	inactive: -33.8%	–
CCOc1ccc(Nc2oc(/C=C/c3ccc(OC)c(OC)c3)nc2C#N)cc1	inactive: -10.6%	–
CN1CCCCC1CCN1c2ccccc2Sc2ccc(S(C)=O)cc21 (stereo not drawn)	inactive: -0.277%	–
CCN(CC)S(=O)(=O)c1ccc(C(=O)NC2CC(=O)N(c3ccc(OC)c(OC)c3)C2)cc1 (stereo not drawn)	inactive: -18%	–
CC(=O)c1ccc(NC(=O)c2cc3sccc3n2Cc2ccc(Cl)cc2)cc1	inactive: -12.8%	–
Cc1ccc(N(CC(=O)NCCSc2ccccc2)S(=O)(=O)c2ccc(F)cc2)cc1	inactive: -2.6%	–
CCOCCCNC(=O)C(=O)Nc1c2c(nn1-c1ccccc1)CSC2	inactive: -18.5%	–
COCCCn1c(=O)c2sccc2n2c(CCCC(=O)Nc3cccc(OC)c3)nnc12	inactive: -24.3%	–
COc1ccc(CNC(=O)c2cc3cccc4c3n2CC(C)S4)cc1OC (stereo not drawn)	inactive: -31.1%	–
Cc1cccc(NC(=O)C2CCCN(S(=O)(=O)c3ccc4c(c3)CCCC(=O)N4)C2)c1 (stereo not drawn)	inactive: -25.9%	–
COCCCn1c(SCC(=O)Nc2ccc(F)cc2)nc2c(sc3ccccc32)c1=O	inactive: -13.3%	–
O=C(c1ccc2c(c1)N(Cc1c(F)cccc1Cl)C(=O)c1ccccc1S2)N1CCCC1	inactive: -23.8%	–
COc1cc(NC(=O)CN2C(=O)COc3ccc(S(=O)(=O)NC4CCCC4)cc32)cc(OC)c1	inactive: -3.99%	–
O=C(CO)N1CCC(c2[nH]nc(-c3ccc(Cl)cc3)c2-c2ccncn2)CC1	inactive: -10.8%	–
CC(=O)N1CCCC1c1nc2ccccc2n1Cc1ccc(F)cc1 (stereo not drawn)	inactive: -14.9%	–
CCC(C)c1ccccc1OCC(=O)Nc1ccc(S(=O)(=O)Nc2cc(C)on2)cc1 (stereo not drawn)	inactive: -6.07%	–
COc1cc(NS(=O)(=O)c2c(C(=O)N3CCCCC3)c(C)n(C)c2C)cc(OC)c1OC	inactive: 1.54%	–
CC1CCc2c(sc3nnn(CC(=O)Nc4c(C(C)C)cccc4C(C)C)c(=O)c23)C1 (stereo not drawn)	inactive: -26.7%	–
O=C(Nc1cccc2cccnc12)c1ccc(-c2cccc(Cl)c2)o1	inactive: 4.32%	–
CCCn1c2ccccc2c2cnn(CC(=O)NCCCN(CC)c3ccccc3)c(=O)c21	inactive: -26.3%	–

Source: PubChem BioAssay AID1508623 (National Center for Advancing Translational Sciences (NCATS), 2021)
